The source of these data is PubChem BioAssay AID463173 (ICCB-Longwood Screening Facility, Harvard Medical School, 2010).

Structures are written as SMILES. Among all 52,000 compounds or so, about 1,700 (3.3%) were called active. Rule as the data show it: active = survival mostly below about 52% (no sharp cut-off); inactive = mostly above about 56%. Some of the results follow.

The assay relates to Wild type. Description: growth inhibition of S. aureus wild type versus tarO mutant, primary screen, teichoic acid synthesis inhibitors, RN4220, OD600 (AID 463173). The conditions noted are these: S. aureus RN4220 wild type/DeltatarO growth, OD600, 18 h, active compounds read low, screened at 18.75 µg/mL (by protocol).
`CC(=O)N1c2ccc(S(=O)(=O)NCC3CCC(C(=O)Nc4ccc(C)c(C)c4)CC3)cc2CC1C` (configuration not stated): the survival is inactive: 105%.
With `Cc1cc(C(=O)NCc2cccc(Br)c2)c2c(C)nn(-c3ccccc3)c2n1` the figure was inactive: 120%; with `COCCCn1c(=N)c(C(=O)NCc2cccnc2)cc2c(=O)n3cc(C)ccc3nc21`, inactive: 67%; with `COc1ccc(OC)c(Nc2ncnc3c2nc2n3CCCC2)c1`, inactive: 77%.
The same measure for `COc1cc(CCNC(=O)c2ccc3c(c2)c(C)c(C)n3Cc2cccc(C)c2)cc(OC)c1OC`: inactive: 89%.
As to `CCc1nnc(SCc2ccc(OC)cc2)c2cc3sc(C)cc3n12`, the survival is inactive: 88%.
The same measure for `CCOc1ccc(NC(=O)c2nc3nc(C)cc(C(F)F)n3n2)cc1`: inactive: 69%; for `Cc1cc(C)c2c(-n3cccc3)c(C(=O)NCc3cccc(F)c3)sc2n1`: inactive: 93%; for `C=CCN(CC=C)C(=O)C(C)N1CCN(C2CCCCC2)CC1` (configuration not stated): inactive: 112%.
The same measure for `Oc1ccc(-c2nc(-c3ccccc3)c(-c3ccc(Br)cc3)[nH]2)cc1`: active: -2%.
For `Cc1nn(-c2ccccc2)c2c1cc1c(=O)n(C)c(=O)nc-1n2-c1cccc(Cl)c1`, the survival is inactive: 83%.
With `COc1ccccc1NC(=O)C1CCN(S(=O)(=O)c2ccc3[nH]c4c(c3c2)CCCCC4)CC1` the figure was inactive: 125%; with `Cc1cc(C)c(NC(=O)CCn2c(=O)c3cccn3c3ccccc32)c(C)c1`, inactive: 76%.
As for `CCN1CCN(C(c2ccc(SC)cc2)c2c(O)cc(C)n(Cc3ccco3)c2=O)CC1` (configuration not stated), the survival was inactive: 95%.
With `COc1ccc(-c2cc(=O)c3cc(OCC(=O)OC(C)C)ccc3o2)cc1`, the survival is inactive: 121%.
The same measure for `CCOc1ccc(NC(=O)C2CCC(N3C(=O)C4CC=CCC4C3=O)CC2)cc1` (configuration not stated): inactive: 119%; for `COc1cc(NC(=O)CCS(=O)(=O)c2nc(-c3ccc4c(c3)OCO4)cc(C(F)(F)F)n2)cc(OC)c1OC`: inactive: 92%; for `COC(=O)c1sc(N2C(=O)c3oc4ccccc4c(=O)c3C2c2ccc(O)cc2)nc1C` (configuration not stated): inactive: 132%.
Take `COCCCN1C(=O)c2[nH]nc(-c3ccccc3O)c2C1c1ccc(OCc2ccccc2)cc1` (configuration not stated): the survival is inactive: 22%.
The same measure for `Cc1ccc(NC(=O)Cn2c(=O)n(CCCCC(=O)NCCc3ccc(Cl)cc3)c(=O)c3ccccc32)cc1`: inactive: 107%; for `O=C(CSC1=NCCS1)Nc1ccnc2ccccc12`: inactive: 91%.
The same measure for `COc1ccc(CNC(=O)CN2C(=O)COc3ccc(S(=O)(=O)N4CCC(C)CC4)cc32)cc1`: inactive: 93%.
With `CCc1c(C)sc2c1CCN(C(=O)Nc1cc(C)cc(C)c1)C2c1ccccc1` (configuration not stated) the figure was inactive: 47%.
In the case of `Cc1ccccc1-c1nnc(N(C(=O)C2CC2)C2CCCC2)s1`, the survival is inactive: 103%.
The same measure for `COCCCNC(=O)CSc1nc2cc3c(cc2c(=O)n1CCCCCC(=O)NCc1ccc2c(c1)OCO2)OCO3`: inactive: 55%; for `Cc1nc(NC(=O)c2c(-c3ccccc3)c(-c3ccccc3)nn(C)c2=O)sc1C`: inactive: 55%.
With `CCCCNC(=O)C1CCC(CNS(=O)(=O)c2ccc(C)cc2)CC1` (configuration not stated) the figure was inactive: 77%.
With `CCc1ccc(S(=O)(=O)Nc2ccc3[nH]c(=O)sc3c2)cc1` the figure was inactive: 70%; with `Cc1cccc(NC(=O)c2sc3nc4c(cc3c2N)CN(C(C)C)CC4)c1`, inactive: 78%; with `Cc1cccc(N2CCN(C(=O)CN3C(=O)COc4ccc(S(=O)(=O)N5CCOCC5)cc43)CC2)c1C`, inactive: 83%.
Regarding `COc1ccc2[nH]cc(NC(=O)NCc3ccncc3)c(=O)c2c1`, the survival is inactive: 110%.
On to `CC1=C(C(=O)OC2CCCCCC2)C(c2cccc(F)c2F)CC(=O)N1` (configuration not stated), for which the survival is inactive: 123%.
The same measure for `CCC1CCCCN1C(=O)CSc1nc(-c2ccc(OC)c(OC)c2)cc(C(F)(F)F)n1` (configuration not stated): active: -15%; for `O=C1c2ccccc2C(=O)C1(O)N1CCOCC1`: inactive: 105%; for `Cc1cc([N+](=O)[O-])ccc1NC(c1nnc(-c2ccccc2)o1)c1ccccc1F` (configuration not stated): inactive: 99%.
The same measure for `Cc1ccc(Cn2c(SCC(=O)NCc3ccccc3Cl)nc3ccsc3c2=O)cc1`: active: -6%; for `CCOC(=O)c1cc2c(=O)n3ccccc3nc2n(Cc2ccco2)c1=NC(=O)c1cccc(F)c1`: inactive: 43%.
With `Fc1ccc(Nc2nc(SCc3ccccc3F)nc3ccccc23)cc1` the figure was inactive: 47%; with `COc1cc(NC(=O)CCCc2nnc3n(CC(C)C)c(=O)c4sccc4n23)cc(OC)c1`, inactive: 97%.
In the case of `Cc1nc2cc(C(=O)NC3CCCCCC3)ccc2n1-c1ccc(Br)cc1`, the survival is inactive: 65%.
The same measure for `CC(C)N(C(=O)CSc1nnc(Cc2csc(Nc3ccccc3)n2)o1)C(C)C`: inactive: 114%; for `CC(=O)N1CCc2cc(Br)cc(S(=O)(=O)CCC(=O)N3CCN(c4ccccc4)CC3)c21`: inactive: 62%; for `CCOc1ccc2nc(N3CCCC(C(=O)Nc4ccc(OC)c(Cl)c4)C3)sc2c1` (configuration not stated): inactive: 89%.
Regarding `Cc1cc(-c2ccc(C)c(S(=O)(=O)NCCc3ccc(S(N)(=O)=O)cc3)c2)on1`, the survival was inactive: 69%.
The same measure for `CC(C)c1ccc(NS(=O)(=O)c2ccc3[nH]cc(C(=O)NCC4CCCO4)c(=O)c3c2)cc1` (configuration not stated): inactive: 115%.
For the compound `NC(=O)C1CCN(C(=O)CN2CCc3ccccc3C2)CC1`, the survival is inactive: 115%.
The same measure for `O=C(CSc1nc(-c2ccco2)cc(C(F)(F)F)n1)Nc1ccccc1`: inactive: 105%; for `CN(C)S(=O)(=O)c1ccc2c(c1)N(CC(=O)Nc1ccc(F)cc1)C(=O)CS2`: inactive: 68%.
With `Cc1ccc2oc(=O)c3cc(C(=O)N(Cc4ccccc4)C(C)C)sc3c2c1` the figure was inactive: 84%.
As to `O=C(CSc1oc(-c2ccco2)nc1S(=O)(=O)c1ccc(Cl)cc1)c1ccc(Cl)cc1`, the survival was inactive: 102%.
With `Cc1ccc(CN2c3ccccc3S(=O)(=O)c3ccccc32)cc1` the figure was inactive: 82%; with `COc1ccc(CNC(=O)CC2N=C3c4ccccc4N=C(SCC(=O)Nc4ccc(N(C)C)cc4)N3C2=O)cc1` (configuration not stated), inactive: 84%; with `COc1ccc(-c2c3c(=O)n(C)c(=O)n(C)c3c3c(-c4ccc(C)cc4)nc4ccccc4n23)cc1`, inactive: 83%.
The same measure for `Cc1ccc(NC(=O)Cn2c(-c3ccc4c(c3)OCO4)cn(-c3ccccc3)c2=O)cc1`: inactive: 72%; for `Cc1ccc2c(c1)c1c(c(=O)n(Cc3ccccc3)c(=O)n1CC(=O)Nc1ccccc1C)n2C`: inactive: 125%.
With `Cc1nnc(NC(=O)CCCN2C(=O)/C(=C/c3cccs3)SC2=S)s1` the figure was inactive: 107%.
Take `Cc1ccc(Nc2nc(C(=O)NCc3ccco3)cs2)cc1`: the survival was inactive: 116%.
For the compound `Cc1ccc(S(=O)(=O)Nc2cc3c(cc2N2CCOCC2)n(C)c(=O)n3C)c(C)c1`, the survival is inactive: 79%.
With `CCC(C(=O)Nc1cccc(C#N)c1)n1c(=O)c(-c2ccccc2NC(C)=O)nc2ccccc21` (configuration not stated) the figure was inactive: 96%; with `Cc1ccc(CSc2nc(=O)c3c(n2C)NC(=O)CC3c2ccc(OC(C)C)cc2)cc1` (configuration not stated), inactive: 86%; with `CCN1CCC(N(Cc2cccc(OC)c2)C(=O)Nc2ccc(C)cc2Cl)CC1`, inactive: 53%.
With `CCCCCNC(=O)C(=O)NCC(c1ccc2c(c1)OCO2)N1CCOCC1` (configuration not stated) the figure was inactive: 68%; with `CCc1nnc(NC(=O)CSCc2cc(=O)c3ccc(C)cc3[nH]2)s1`, inactive: 120%.
The same measure for `CCOC(=O)c1cc2c(ccn2-c2ccc(F)cc2)n1CC(=O)N1CCc2ccccc21`: inactive: 116%; for `Cc1cc(C)nc(SC2CCCCC2=O)n1` (configuration not stated): inactive: 110%.
Turning to `COc1cc(NC(=O)c2cnn(-c3cccc(F)c3)c2C2CCNCC2)cc(OC)c1OC`, the survival was inactive: 74%.
Take `COc1cccc(CN(CCO)Cc2ccccc2)c1OC`: the survival is inactive: 119%.
With `Cc1ccc(S(=O)(=O)CCSc2nc(C)cc(C)c2C#N)cc1` the figure was inactive: 96%; with `O=C(CN(C1CCCCC1)S(=O)(=O)c1ccccc1)NCc1ccco1`, inactive: 109%.
With `Cc1ccc(C)c(NC(=O)CCCn2nc(C)c3sc4ccccc4c3c2=O)c1`, the survival is inactive: 89%.
The same measure for `Cc1cc(O)c(C(c2ccccc2Cl)N2CCN(c3ccccc3)CC2)c(=O)n1Cc1ccco1` (configuration not stated): inactive: 77%; for `O=C(C1=C(O)C(=O)N(CCN2CCOCC2)C1c1ccccc1)c1ccco1` (configuration not stated): inactive: 99%.
Take `CCCN(CCC)CCNC(=O)c1cc2c(-c3ccccc3F)nn(C)c2s1`: the survival is inactive: 97%.
As for `COc1cc(CN(C(=O)COc2ccc(C)c(C)c2)c2ccccn2)cc(OC)c1OC`, the survival is inactive: 80%.
As to `COc1ccc(NC(=O)CN(Cc2ccccc2)S(=O)(=O)c2ccc3nc(C)sc3c2)cc1`, the survival was inactive: 77%.
The same measure for `CCN(CC)C(=O)CSc1nnc2c(n1)[nH]c1ccc(C(C)C)cc12`: inactive: 113%; for `CCCCN(CC)CCCNC(=O)c1cc2c(-c3ccc(OC)c(OC)c3)nn(C)c2s1`: inactive: 100%; for `CCN(CC)CCNC(=O)Cn1ncc2c([nH]c3ccccc32)c1=O`: inactive: 72%.
With `Cn1nc(C(=O)N2CCN(c3ccccc3F)CC2)c2c1-c1ccccc1SC2` the figure was inactive: 50%.
The same measure for `O=C1c2oc3ccc(F)cc3c(=O)c2C(c2cccc([N+](=O)[O-])c2)N1CCCN1CCOCC1` (configuration not stated): inactive: 79%; for `Cc1ccc(NC(=O)c2cccn2-c2nnc(N3CCCCC3)s2)cc1Cl`: inactive: 88%.
In the case of `CCOc1ccc(-c2cnc(NCc3ccc(OC)cc3OC)n2C)cc1`, the survival is inactive: 68%.
With `COCCNC(=O)C1CCCN(S(=O)(=O)c2ccc3c(ccn3C)c2)C1` (configuration not stated), the survival was inactive: 47%.
With `O=C(NCc1ccc(F)cc1)c1ccc(NC(=O)N2CC3CCCN3c3ccccc32)cc1` (configuration not stated) the figure was inactive: 123%.
With `COc1ccc(Cl)cc1NC(=O)CCC(=O)c1ccc(C)cc1` the figure was inactive: 85%.
The same measure for `CC(=O)c1ccc(NC(=O)c2ncn(-c3ccccc3)n2)cc1`: inactive: 65%.
For `Cc1ccc2nc(N(Cc3cccnc3)C(=O)C3COc4ccccc4O3)sc2c1` (configuration not stated), the survival is inactive: 71%.
